# The list shows a part of the results.
# What was measured:
# Assay in all cases: glycan array binding signal (z-score within array); higher = stronger binding
# Conditions in all cases: glycan notation: IUPAC condensed, linker removed
# Gal(a1-2)Gal = molecular target: Gal(a1-2)Gal
# Procedure, shortened: (§1)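 Negative Z-scores can be read as non-binding. The Z-score is calculated within each array and then averaged across arrays of one protein sequence at different concentrations or buffers and across linkers. Arrays, 3228 in all, were curated from the Consortium for Functional Glycomics database and kept only where the protein sequence was available.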
# Gal(a1-3)Gal = molecular target: Gal(a1-3)Gal
# Procedure, shortened: as §1
# Gal(a1-3)Gal(b1-3)GlcNAc = molecular target: Gal(a1-3)Gal(b1-3)GlcNAc
# Procedure, shortened: as §1
# Gal(a1-3)Gal(b1-4)Glc = molecular target: Gal(a1-3)Gal(b1-4)Glc
# Procedure, shortened: as §1
# Gal(a1-3)Gal(b1-4)GlcNAc = molecular target: Gal(a1-3)Gal(b1-4)GlcNAc
# Procedure, shortened: as §1
# [1] = molecular target: Gal(a1-3)Gal(b1-4)[Fuc(a1-3)]GlcNAc
# Procedure, shortened: as §1
# Gal(a1-3)GalNAc = molecular target: Gal(a1-3)GalNAc
# Procedure, shortened: as §1
# [2] = molecular target: Gal(a1-3)[Gal(a1-4)]Gal(b1-4)GlcNAc
# Procedure, shortened: as §1
# Gal(a1-4)Gal(b1-4)Glc = molecular target: Gal(a1-4)Gal(b1-4)Glc
# Procedure, shortened: as §1
# Gal(a1-4)Gal(b1-4)GlcNAc = molecular target: Gal(a1-4)Gal(b1-4)GlcNAc
# Procedure, shortened: as §1
# Gal(a1-4)GlcNAc = molecular target: Gal(a1-4)GlcNAc
# Procedure, shortened: as §1
# Gal(a1-6)Glc = molecular target: Gal(a1-6)Glc
# Procedure, shortened: as §1
# Gal(b1-2)Gal = molecular target: Gal(b1-2)Gal
# Procedure, shortened: as §1
# Gal(b1-3)Gal = molecular target: Gal(b1-3)Gal
# Procedure, shortened: as §1
# Gal(b1-3)GalNAc = molecular target: Gal(b1-3)GalNAc
# Procedure, shortened: as §1
# [3] = molecular target: Gal(b1-3)GalNAc(b1-3)Gal(a1-4)Gal(b1-4)Glc
# Procedure, shortened: as §1
# [4] = molecular target: Gal(b1-3)GalNAc(b1-4)Gal(b1-4)Glc
# Procedure, shortened: as §1
# [5] = molecular target: Gal(b1-3)GalNAc(b1-4)[Neu5Ac(a2-3)]Gal(b1-4)Glc
# Procedure, shortened: as §1
# Gal(b1-3)GlcNAc = molecular target: Gal(b1-3)GlcNAc
# Procedure, shortened: as §1
# [6] = molecular target: Gal(b1-3)GlcNAc(b1-3)Gal(b1-4)Glc
# Procedure, shortened: as §1
# [7] = molecular target: Gal(b1-3)GlcNAc(b1-3)Gal(b1-4)GlcNAc
# Procedure, shortened: as §1
# [8] = molecular target: Gal(b1-3)[Fuc(a1-4)]GlcNAc
# Procedure, shortened: as §1
# [9] = molecular target: Gal(b1-3)[Fuc(a1-4)]GlcNAc(b1-3)Gal(b1-4)GlcNAc
# Procedure, shortened: as §1
# [10] = molecular target: Gal(b1-3)[Fuc(a1-4)]GlcNAc(b1-3)Gal(b1-4)[Fuc(a1-3)]GlcNAc
# Procedure, shortened: as §1
# [11] = molecular target: Gal(b1-3)[GlcNAc(b1-6)]GalNAc
# Procedure, shortened: as §1
# [12] = molecular target: Gal(b1-3)[Neu5Ac(a2-6)]GalNAc
# Procedure, shortened: as §1
# [13] = molecular target: Gal(b1-3)[Neu5Ac(a2-6)]GlcNAc(b1-6)Gal(b1-4)Glc
# Procedure, shortened: as §1
# [14] = molecular target: Gal(b1-3)[Neu5Ac(b2-6)]GalNAc
# Procedure, shortened: as §1
# [15] = molecular target: Gal(b1-4)GalNAc(a1-3)[Fuc(a1-2)]Gal(b1-4)GlcNAc
# Procedure, shortened: as §1
# [16] = molecular target: Gal(b1-4)GalNAc(b1-3)[Fuc(a1-2)]Gal(b1-4)GlcNAc
# Procedure, shortened: as §1
# Gal(b1-4)Glc = molecular target: Gal(b1-4)Glc
# Procedure, shortened: as §1
# Gal(b1-4)Glc6S = molecular target: Gal(b1-4)Glc6S
# Procedure, shortened: as §1
# Gal(b1-4)GlcNAc = molecular target: Gal(b1-4)GlcNAc
# Procedure, shortened: as §1
# [17] = molecular target: Gal(b1-4)GlcNAc(b1-2)Man(a1-3)[Gal(b1-4)GlcNAc(b1-2)Man(a1-6)]Man(b1-4)GlcNAc(b1-4)GlcNAc
# Procedure, shortened: as §1
# [18] = molecular target: Gal(b1-4)GlcNAc(b1-3)Gal(b1-4)Glc
# Procedure, shortened: as §1
# [19] = molecular target: Gal(b1-4)GlcNAc(b1-3)Gal(b1-4)GlcNAc
# Procedure, shortened: as §1
# [20] = molecular target: Gal(b1-4)GlcNAc(b1-3)Gal(b1-4)GlcNAc(b1-3)Gal(b1-4)GlcNAc
# Procedure, shortened: as §1
# [21] = molecular target: Gal(b1-4)GlcNAc(b1-3)Gal(b1-4)[Fuc(a1-3)]GlcNAc(b1-3)Gal(b1-4)[Fuc(a1-3)]GlcNAc
# Procedure, shortened: as §1
binder,measurement,setting,value
"F17eG (Escherichia coli), Q9RH92 (protein) MTNFYKVFLAVFILVCCNISHAAVSFIGSTENDVGPSQSSYSRTHAMDNLPFVYNTGYNIGYQNANVWRISGGFCVGLDGKVDLPVVGSLDGQSIYGLTEEVGLLIWMGDTNYSRGTAMSGNSWENVFSGWCVGNYVSTQGLSVHVRPVILKRNSSAQYSVQKTSIGSIRMRPYNGSSAGSVQTTVNFSLNPFTLNDTVTSCRLLTPSAVNVSLAAISAGQLPSSGDEVVAGTTSLKLQCDAGVTVWATLTDATTPSNRSDILTLTGASTATGVGLRIYKNTDSTPLKFGPDSPVKGNENQWQLSTGTETSPSVRLYVKYVNTGEGINPGTVNGISTFTFSYQ",glycan array binding signal (z-score),Gal(a1-2)Gal,-0.313
same,glycan array binding signal (z-score),Gal(a1-3)Gal,-0.296
same,glycan array binding signal (z-score),Gal(a1-3)Gal(b1-3)GlcNAc,-0.316
same,glycan array binding signal (z-score),Gal(a1-3)Gal(b1-4)Glc,-0.307
same,glycan array binding signal (z-score),Gal(a1-3)Gal(b1-4)GlcNAc,-0.312
same,glycan array binding signal (z-score),[1],-0.313
same,glycan array binding signal (z-score),Gal(a1-3)GalNAc,-0.302
same,glycan array binding signal (z-score),[2],-0.309
same,glycan array binding signal (z-score),Gal(a1-4)Gal(b1-4)Glc,-0.293
same,glycan array binding signal (z-score),Gal(a1-4)Gal(b1-4)GlcNAc,-0.306
same,glycan array binding signal (z-score),Gal(a1-4)GlcNAc,-0.307
same,glycan array binding signal (z-score),Gal(a1-6)Glc,-0.29
same,glycan array binding signal (z-score),Gal(b1-2)Gal,-0.309
same,glycan array binding signal (z-score),Gal(b1-3)Gal,-0.296
same,glycan array binding signal (z-score),Gal(b1-3)GalNAc,-0.295
same,glycan array binding signal (z-score),[3],-0.304
same,glycan array binding signal (z-score),[4],-0.31
same,glycan array binding signal (z-score),[5],-0.31
same,glycan array binding signal (z-score),Gal(b1-3)GlcNAc,-0.287
same,glycan array binding signal (z-score),[6],-0.293
same,glycan array binding signal (z-score),[7],-0.305
same,glycan array binding signal (z-score),[8],-0.309
same,glycan array binding signal (z-score),[9],-0.316
same,glycan array binding signal (z-score),[10],-0.221
same,glycan array binding signal (z-score),[11],4.13
same,glycan array binding signal (z-score),[12],-0.312
same,glycan array binding signal (z-score),[13],-0.318
same,glycan array binding signal (z-score),[14],-0.3
same,glycan array binding signal (z-score),[15],-0.137
same,glycan array binding signal (z-score),[16],-0.297
same,glycan array binding signal (z-score),Gal(b1-4)Glc,-0.307
same,glycan array binding signal (z-score),Gal(b1-4)Glc6S,-0.297
same,glycan array binding signal (z-score),Gal(b1-4)GlcNAc,0.593
same,glycan array binding signal (z-score),[17],-0.298
same,glycan array binding signal (z-score),[18],-0.133
same,glycan array binding signal (z-score),[19],-0.293
same,glycan array binding signal (z-score),[20],-0.292
same,glycan array binding signal (z-score),[21],-0.263
